This sample is rich in variants without activity.
B1: tRNA (parent)
chain: CUCUCGGUAGCCAAGUUGGUUUAAGGCGCAAGACUUUAAUUUAUCACUACGAAAUCUUGAGAUCGGGCGUUCGACUCGCCCCCGGGAGAUUUUUUCCUCGAGCAA

Variants of: B1
Assay: nonsense suppression (GFP-seq) (ratio to wild type); higher = more function; SUP4oc tRNA, yeast GFP reporter sort-seq
How it was run: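 To measure nonsense suppression, tRNA variants from a library carrying ~3% random mutations were integrated into the yeast genome alongside RFP and a GFP ochre reporter under galactose control. Growth took place in raffinose/galactose medium supplemented with 80 mg/L adenine, followed by sorting into GFP/RFP bins and Illumina sequencing of each bin (phred ≥30). For each variant with ≥100 reads and ≥30 cells, the bin median GFP/RFP values were weighted by its estimated cell share per bin and referenced to the unmutated parent tRNA.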

| Variant | nonsense suppression |
| --- | --- |
| U21G U22C C27U A31G A33G | ≤ 0.026 |
| U21G U22C C82U | 0.199 |
| U21G U22C G59U | ≤ 0.026 |
| U21G U22C G69U G73C | ≤ 0.026 |
| U21G U35A U57C G69C G73U | ≤ 0.026 |
| U21G U35A U58C G61C | ≤ 0.026 |
| U21G U35G G78A | ≤ 0.026 |
| U21G U55C U57C G78C | ≤ 0.026 |
| U21G U57A | ≤ 0.026 |
| U21G U58A G59A G61A U63G G67C | ≤ 0.026 |
| U21G U58A G85A | ≤ 0.026 |
| U21G U63G U76A | ≤ 0.026 |
| U21G U71C | 0.0265 |
| U21G U76C | 0.861 |
| U22A A23C | 0.153 |
| U22A A23U A24G A62C | ≤ 0.026 |
| U22A A24C C68U | 0.215 |
| U22A A33U | ≤ 0.026 |
| U22A A33U A89C | ≤ 0.026 |
| U22A A74G C82A | ≤ 0.026 |
| U22A C27G U71C G73A C80G | ≤ 0.026 |
| U22A C27U C34U | ≤ 0.026 |
| U22A C56A | ≤ 0.026 |
| U22A C56G G65A G69A U70C | ≤ 0.026 |

| Variant | nonsense suppression |
| --- | --- |
| U22A C75A A89C | ≤ 0.026 |
| U22A C75U | 1.15 |
| U22A C77G C79U | ≤ 0.026 |
| U22A G25U | 0.0283 |
| U22A G25U C27G G32U A33G G69U | ≤ 0.026 |
| U22A G65A | 0.12 |
| U22A G88C | ≤ 0.026 |
| U22A U55C | 0.377 |
| U22A U57C G67U U70C | ≤ 0.026 |
| U22A U58G G73A C79G C81G | ≤ 0.026 |
| U22C A23C G86A | ≤ 0.026 |
| U22C A23G | ≤ 0.026 |
| U22C A24C | 1.01 |
| U22C A24G G25U G28U A30U A33U | ≤ 0.026 |
| U22C A24U C27A A31U A60C | ≤ 0.026 |
| U22C A24U C56G A60G G78A | ≤ 0.026 |
| U22C A31C | ≤ 0.026 |
| U22C A31C G32U C79G | ≤ 0.026 |
| U22C A31G A74C | ≤ 0.026 |
| U22C A31G U35A U57A C77A | ≤ 0.026 |
| U22C A31U C80G G86U | ≤ 0.026 |
| U22C A54C | 1.2 |
| U22C A54C G67A U76A | ≤ 0.026 |
| U22C A54U | 1.05 |

| Variant | nonsense suppression |
| --- | --- |
| U22C A62C | ≤ 0.026 |
| U22C A62G G73A A87U | ≤ 0.026 |
| U22C A62G U71G G86U G88U | ≤ 0.026 |
| U22C C29U A30C A33G G86A A87U | ≤ 0.026 |
| U22C C29U G61A | 0.386 |
| U22C C29U G66A U76G | ≤ 0.026 |
| U22C C56A G61C | ≤ 0.026 |
| U22C C72A | ≤ 0.026 |
| U22C C82G | ≤ 0.026 |
| U22C C83A | ≤ 0.026 |
| U22C G25C G32C A62C C64G | ≤ 0.026 |
| U22C G26A G73C | ≤ 0.026 |
| U22C G26C | ≤ 0.026 |
| U22C G26U C29G G61U G66U G88C | ≤ 0.026 |
| U22C G26U G67U G73U | ≤ 0.026 |
| U22C G26U U58G U70C | ≤ 0.026 |
| U22C G59A A87G | ≤ 0.026 |
| U22C G59A C77U | ≤ 0.026 |
| U22C G59C | ≤ 0.026 |
| U22C G61A C79U | 0.197 |
| U22C G69U | ≤ 0.026 |
| U22C G73A | 0.848 |
| U22C G78C | 0.195 |
| U22C U35C U70A A87C A89U | ≤ 0.026 |

| Variant | nonsense suppression |
| --- | --- |
| U22C U35G C56U U71A | ≤ 0.026 |
| U22C U55C U57G | ≤ 0.026 |
| U22C U58A C75G | ≤ 0.026 |
| U22C U58A G61A U71G | ≤ 0.026 |
| U22C U58G G59A G65A | ≤ 0.026 |
| U22C U63C G69A G78A | ≤ 0.026 |
| U22C U71C C81U | ≤ 0.026 |
| U22G A23C | ≤ 0.026 |
| U22G A23C C83G | ≤ 0.026 |
| U22G A23G | ≤ 0.026 |
| U22G A24C | 0.817 |
| U22G A24U A87G A89U | ≤ 0.026 |
| U22G A30C A33G G61A C79U | ≤ 0.026 |
| U22G A30U | 0.184 |
| U22G A31U U57A A74G C80G | ≤ 0.026 |
| U22G A31U U63C U71A | ≤ 0.026 |
| U22G A33C C80G | ≤ 0.026 |
| U22G A33G A54G C75G | ≤ 0.026 |
| U22G A33G U55C U63C G69C U70A G85C | ≤ 0.026 |
| U22G A33U | ≤ 0.026 |
| U22G A33U C75A | ≤ 0.026 |
| U22G A54C G65C | ≤ 0.026 |
| U22G A54C G66C | ≤ 0.026 |
| U22G A54U | 1.12 |

| Variant | nonsense suppression |
| --- | --- |
| U22G A60C | 0.175 |
| U22G A60G G67A A74C C81A G88U | ≤ 0.026 |
| U22G A74C | ≤ 0.026 |
| U22G A87G | 0.886 |
| U22G C27A C80A | ≤ 0.026 |
| U22G C27G C56G A60U C75U G88U | ≤ 0.026 |
| U22G C29A C34U | ≤ 0.026 |
| U22G C34A C56U | ≤ 0.026 |
| U22G C34G | ≤ 0.026 |
| U22G C64G | ≤ 0.026 |
| U22G C68G | ≤ 0.026 |
| U22G C72A | ≤ 0.026 |
| U22G C77G | ≤ 0.026 |
| U22G C77G G78U | ≤ 0.026 |
| U22G C81G | ≤ 0.026 |
| U22G C81G C82G | ≤ 0.026 |
| U22G C82U | 0.913 |
| U22G C83U G84A | ≤ 0.026 |
| U22G G25U G66A A89G | ≤ 0.026 |
| U22G G32A G59U G88C | ≤ 0.026 |
| U22G G32C | ≤ 0.026 |
| U22G G59A G84U | ≤ 0.026 |
| U22G G59U A74G | ≤ 0.026 |
| U22G G61A U63A G86C | ≤ 0.026 |

| Variant | nonsense suppression |
| --- | --- |
| U22G G66U | ≤ 0.026 |
| U22G G66U A74G | ≤ 0.026 |
| U22G G67A | ≤ 0.026 |
| U22G G73A | 0.854 |
| U22G G78A | 0.173 |
| U22G G84A A87C | ≤ 0.026 |
| U22G G85U | 0.796 |
| U22G G86C | ≤ 0.026 |
| U22G U35C U55A U63A | ≤ 0.026 |
| U22G U55C G61A C72A | ≤ 0.026 |
| U22G U55G | ≤ 0.026 |
| U22G U57G G69U | ≤ 0.026 |
| U22G U58G | ≤ 0.026 |
| U22G U63C | 0.868 |
| U22G U76A C81G | ≤ 0.026 |
| A23C A24U G61C | ≤ 0.026 |
| A23C A30C G59A U76G C81U G88U | ≤ 0.026 |
| A23C A30G A31G G59A G84A | ≤ 0.026 |
| A23C A30G C81A A87G | ≤ 0.026 |
| A23C A30G G86U | ≤ 0.026 |
| A23C A30U C34G U70C C72G | ≤ 0.026 |
| A23C A31C U55C | ≤ 0.026 |
| A23C A31G | ≤ 0.026 |
| A23C A31U C75A | ≤ 0.026 |

| Variant | nonsense suppression |
| --- | --- |
| A23C A31U U55A U58G A62U C77G | ≤ 0.026 |
| A23C A33G | ≤ 0.026 |
| A23C A33U | ≤ 0.026 |
| A23C A54G A89C | ≤ 0.026 |
| A23C A60C C77G G85U | ≤ 0.026 |
| A23C A87C | ≤ 0.026 |
| A23C C27G | ≤ 0.026 |
| A23C C29A G67C | ≤ 0.026 |
| A23C C29A G69C | ≤ 0.026 |
| A23C C29A G85U | ≤ 0.026 |
| A23C C29G G61A G73A | ≤ 0.026 |
| A23C C34U G78U | ≤ 0.026 |
| A23C C56G G78U G86U | ≤ 0.026 |
| A23C C56G G86C | ≤ 0.026 |
| A23C C56U | ≤ 0.026 |
| A23C C68G C79U | ≤ 0.026 |
| A23C C80U G84U | ≤ 0.026 |
| A23C C81U G85A | ≤ 0.026 |
| A23C C82G | ≤ 0.026 |
| A23C C82U | ≤ 0.026 |
| A23C G25U C27G C79G | ≤ 0.026 |
| A23C G28C C34G | ≤ 0.026 |
| A23C G28U | ≤ 0.026 |

Reference: the RNAGym collection of RNA variant scans (doi:10.1101/gad.245936.114)
